This passage reports self-cleavage results from the RNAGym collection of RNA variant scans (doi:10.7554/elife.90254).

The labels stand for the following.
B1: LINE1-mini (parent)
chain: GGCAGAGCUCAACACAGCGUGGCAAAGUGGCUGUGGCUAGACUGCC

The source gives no read counts; variants with many changes may rest on few reads.

The variants in this series derive from B1. Nature of the series: self-cleavage, relative activity (ratio to wild type); higher = more cleavage; in vitro, sequencing; the parent is a self-cleaving ribozyme.
GGCAGGGCUCAACACAGCGGGGCAAAAUGGCUGUGGCUAGUCUGCC [A6G U20G G27A A41U]: the self-cleavage stood at 0.29.

With GGCAGUGCUCAACACAGCGUGGCCAAGUGGCUGUCGCUAUACUGGC [A6U A24C G35C G40U C45G], the self-cleavage came to 0.01. The result for GGCAGUUCUCAUCACAGCGUGGCAAAGGGGCUAUGGCUAGACUGAC [A6U G7U A12U U28G G33A C45A] reads 0.24. As for GGCAGUGCUCAACACAGCGUGGCCAAGUGGCUGUUGCUAGACUGCC [A6U A24C G35U], the figure is 0.12; as for GGCAGGGCUCAACACAGCGUGGCAAAGUGGCAGUGGCUAGUCUGCC [A6G U32A A41U], 0.05. As for GGCAGUGUUCACAAAAGCGUGGCAAAGUGGCUGUGGCUAGACUACC [A6U C8U A12C C13A C15A G44A], the figure is 0.24; as for GGCAGUGCUCAACACAGCGUGGCACAGUGUAUGUGGCUAGACUGCC [A6U A25C G30U C31A], 0.13; as for GGCAGUCCUCAACACCGCGUGACAAAGUGCCUGUGGCUAGACUGCC [A6U G7C A16C G22A G30C], 0.04. For the variant GGCAGGGCCCAACACAGCGUGGCAAAGUGGCUGUGGCUAGACAGCC [A6G U9C U43A], the self-cleavage stood at 0.01. As for GGCAGUGCUCAACACAGCGUGGCAAAGUGGGUGUGCCUAGACUGCC [A6U C31G G36C], the figure is 0.05; as for GGCAGUGCUCAACAUAGGGUGGCAAAGUGGCUAUGGCUAGACUGCC [A6U C15U C18G G33A], 0.22.

As for GGCAGUGCUCCACACAGAGUGGCGAAGUGGCUGUGGCUAGACUGCC [A6U A11C C18A A24G], the self-cleavage came to 0.01. As for GGCAGUGGGCAACGCAGCGUGGCAACGUGGCUGCGGCUAGACAUCC [A6U C8G U9G A14G A26C U34C U43A G44U], the figure is 0; as for GGCAGGGCUCAACACAGCGCGGCAAAGUGGCUGUGGCUAGAUUGCC [A6G U20C C42U], 0.02.

GGCAGUGCUUAACUGAGCGUGCCAAAGUGGCUGUGGCUAGACAGCC [A6U C10U A14U C15G G22C U43A]: the self-cleavage came out at 0. As for GGCAGUUCUCCACACAGCGUGGCAAAGUGGCUGUGGGAAGCGUUCC [A6U G7U A11C C37G U38A A41C C42G G44U], the figure is 0; as for GGCAGGGCUCAACACAGCGUGGCAAAGUGGCAGGGGCUAGACUGCC [A6G U32A U34G], 0.02. On to GGCAGUGCUCAACACAGCGUGGCAAAGUGGUUGUGGCUAGACUUAC [A6U C31U G44U C45A], for which the self-cleavage stood at 0.32.

For the variant GGCAGUGAUCAACACAGCGUCGCAAAGUGGCUGUCCCUUGACUGCC [A6U C8A G21C G35C G36C A39U], the self-cleavage was determined as 0.11.

As for GGCAGUGCUCAUCACAGCCUGGCAAAGUGGCUGUGGCUAGACUGCC [A6U A12U G19C], the self-cleavage is 0.29.

For the variant GGCAGGGCUCAACACAGCGUGGCAAAGUGGCUGUGGCUAUACCGCC [A6G G40U U43C], the self-cleavage is 0.02. As for GGCAGUGCUCGACACAGCGUGGCAAAGUGGCCGUGGCUAGACUGCC [A6U A11G U32C], the figure is 0. As for GGCAGGGCUCAACACAGCGUGGCAAAGUGGCUGUGUCUAGACUUCC [A6G G36U G44U], the figure is 0.03; as for GGCAGUGCUCAACACAGCGUGGCAUAGUGGCUCCGGCUAGACUGCC [A6U A25U G33C U34C], 0.02; as for GGCAGGGCUCAACACAGCGUGGCAAAGUGGCUGGGGUUAGACUGCA [A6G U34G C37U C46A], 0.

As for GGCAGGGCUCAACACAGCGUGGCAAAGUGGCCGUGGCUAGACUGUC [A6G U32C C45U], the self-cleavage is 0.04. The result for GGCAGUGCUCUACACAGCGUGCCGAAGUGGCUGUGGCUAGAGUGCC [A6U A11U G22C A24G C42G] reads 0.01. As for GGCAGUGAUCAACACAGCGUGGCAAAGUGGCUGUGCCUAGGCUGCC [A6U C8A G36C A41G], the figure is 0.36; as for GGCAGUGCUCAACACGGAGUGGCAAAGUGGCUGUGACUAGACUGCC [A6U A16G C18A G36A], 0.01; as for GGCAGUGCUCAACACAGCGUGGCACAGUGGCAGUAACUAGUCUGCC [A6U A25C U32A G35A G36A A41U], 0.06. As for GGCAGUCCUCCACACAGCGUGGCAAACUGGCUGUGGCUAGACUGCC [A6U G7C A11C G27C], the figure is 0.01; as for GGCAGUGCUAAGCACAGCUUGGCAAAGUGGCUGUGGCUAGACUGCC [A6U C10A A12G G19U], 0.01. For GGCAGUGCUCAUCACAGCGUGGCAGAGUGGCAGUGGCUAUACUGCC [A6U A12U A25G U32A G40U], the self-cleavage is 0.02. As for GGCAGUGCUUAACACAGCGUGGCAAAGUGGCUGUGGGAAGACUGCC [A6U C10U C37G U38A], the figure is 0.

On to GGCAGUGCUCAACAAAGCGUGGCAGAGUGGCUGUGGCUAGACUGCC [A6U C15A A25G], for which the self-cleavage was 0.02.

In the case of GGCAGUGCUCUACACAGCGUGGCAAAGUGGCUGUGGCUAGACUACC [A6U A11U G44A], the self-cleavage was 0.05. As for GGCAGGGCAAAACACACCGGGGCAAAUUGGCUGUGGCUAGACUGCC [A6G U9A C10A G17C U20G G27U], the figure is 0.01; as for GGCAGUGCUCAACACAGCGUGGCGAUGUGGCUGUGGCUAGACUGCC [A6U A24G A26U], 0.2.

Consider GGCAGUGCUCAACACAGCGUGGCAAGGUCGCUGUGGCUAGACAGCC [A6U A26G G29C U43A], for which the self-cleavage turned out to be 0.31. The result for GGCAGUGAUCAACACAGCGAUGCAAAGUGGCUGUGGCUAGACUGCC [A6U C8A U20A G21U] reads 0.06; that for GGCAGUGGUCAACACAGCGUGGCAAAGUGGCUGUGGCUAGGCUACC [A6U C8G A41G G44A], 0.09; that for GGCAGGGCUCAACACAGCGUGGCAAAGGGGGUUUGGCUAGACAGCC [A6G U28G C31G G33U U43A], 0.38. As for GGCAGUGCUCAAUACAGCGUGGCAUAGUGGCUGUGGCCAGACUGCC [A6U C13U A25U U38C], the figure is 0.1; as for GGCAGUGGUCAACACACCGUGGCCAAGUGGCUGUGGCUACACUGCC [A6U C8G G17C A24C G40C], 0.01; as for GGCAGUGCUGAACACAGCGGGGCAAAGUGGUUGGGGCUAGACUGCG [A6U C10G U20G C31U U34G C46G], 0.01. For the variant GGCAGUGCUCAGCUCAGCGUGGCAAAGUGGCUGUGGCUAGACUGCC [A6U A12G A14U], the self-cleavage was 0.08.

As to GGCAGUGCUCAUCACAGCGUGGCAAACAGGCUGUGGCUAGACUGCC [A6U A12U G27C U28A], the self-cleavage was determined as 0.03. As to GGCAGUGCUUAACACAGCGUUGCAAAGUGGCUGUCGCUAGACGGCC [A6U C10U G21U G35C U43G], the self-cleavage was found to be 0. The result for GGCAGUGCUCAACACAGCGUGGCGAAGUGGCUGUGACUAGACUGCC [A6U A24G G36A] reads 0.25; that for GGCAGGGCUCAACACAGCGAGGCAAAGUGGCUAUGGCAAGACUGCC [A6G U20A G33A U38A], 0.03; that for GGCAGUGCUCAACACAGCGUGGCAAAGUGGGUGUGGCUAGACUUCC [A6U C31G G44U], 0.02. As for GGCAGUGCUCAUCACAGCGUGGCAAAGUGACUGUGGCUAUACUGCC [A6U A12U G30A G40U], the figure is 0.27; as for GGCAGUGCUCGACACAGCGUGGCCAAGUGGCUGUGGUUAGACUGCC [A6U A11G A24C C37U], 0.01; as for GGCAGUGCUCAAUACAGCGUGGCAAAGUGGCUGUCGCUAAACUGCC [A6U C13U G35C G40A], 0.11.

Regarding GGCAGGGCUCAACACAGCGGGGCAAAGUGGCUGUGGAUAGACUGCC [A6G U20G C37A], the self-cleavage turned out to be 0.02. As for GGCAGUGCUCAGCACCGCGUGGCAAAGUGGCCGUGGCUAGACUGCC [A6U A12G A16C U32C], the figure is 0.
